In the RNAGym collection of RNA variant scans (doi:10.7554/elife.90254) one finds self-cleavage data, which are given here for 167 variants.

Read counts are not given, so values of variants with three or more changes are uncertain.

B1: LINE1-mini (parent)
chain: GGCAGAGCUCAACACAGCGUGGCAAAGUGGCUGUGGCUAGACUGCC

In this series the parent is B1. Description: self-cleavage, relative activity (ratio to wild type); higher = more cleavage; in vitro, sequencing; the parent is a self-cleaving ribozyme.
As to G2A A16C G22A C46A, the self-cleavage was 0.42.
With G1U G22A C46U, the self-cleavage came out at 0.85.
In the case of G2A A6C A12G A26U G30C U38G U43G it was 0; in that of G2A A16U A26C, 0.02; in that of G1U G30U U38A, 0.26.
In the case of G2A A4G C15A G36A C46U it was 0.21.
As for G2A C8A U9A A12U U32G, the figure is 0.04; as for G1U C23U A24U, 0.15.
Consider G2A C8A G29A, for which the self-cleavage was found to be 0.54.
As for G1U G7A C10G G22A, the figure is 0.03; as for G2A C13G G17A C31U U43A, 0.04; as for G1U C13U U43G, 0.1.
In the case of G2A C18A C42A it was 0.04.
Take G1U C13A G19C: the self-cleavage worked out at 0.01.
In the case of G1U U32A U43C it was 0; in that of G1U G21U C46A, 0.19.
As for G2A A24C G29A G44A, the figure is 1.22; as for G1U G7A A16C G19U, 0.03.
As to G2A C8A G30A G40U C46G, the self-cleavage came to 0.48.
Turning to G2A C10G C13G A41U, the self-cleavage is 0.02.
In the case of G2A C3A C10A A11C U43G it was 0.
On to G2A A11C U43A, for which the self-cleavage was 0.03.
In the case of G2A C15A U32A it was 0.18.
In the case of G2A C13G C45G it was 0.06.
As for G2A C13G G21A G29U, the figure is 0.44; as for G2A A12G C18U G29C G36U, 0.01; as for G2A A4C A14G U20A G33A, 0.06.
As to G2A C3A G7A, the self-cleavage worked out at 0.6.
For the variant G1U C18G G22U A26C C37U, the self-cleavage was 0.01.
For G2A A11C C13G U34G C46A, the self-cleavage turned out to be 0.02.
As for G1U C13U U38A, the figure is 0.05.
In the case of G1U G7C C10G it was 0.01; in that of G1U G7U U20C, 0.
As to G2A G5A A14G A24U G35U, the self-cleavage stood at 2.35.
Regarding G1U G5U A41U, the self-cleavage came to 0.26.
In the case of G2A C15U G44U it was 0.72.
In the case of G2A A16C C18U G19A U28A G36U C37A, the self-cleavage worked out at 0.1.
In the case of G1U C13U U20A C46U it was 0.04; in that of G2A C8G A12U C23U C31U G33U, 0.03; in that of G2A A11C A16G G30C, 0.02.
As for G2A A6C C18U, the figure is 0.23; as for G1U G19U C46A, 0.35.
On to G1U G19U C46G, for which the self-cleavage is 0.2.
As for G2A A4U A6G G22U C23G C42U G44U, the figure is 0.03; as for G2A A11G A12U A24C G35A G40U C45G, 0.
As to G2A C3A A39C, the self-cleavage amounted to 1.06.
In the case of G1U C13A C18U C23G G27A it was 0.1; in that of G2A C10A A16C C23U, 0.08; in that of G2A C15U A24C, 0.54.
In the case of G2A A25G G30U U32A it was 0.13; in that of G1U G22U G33C, 0.01.
In the case of G2A A14C G33U C46A it was 0.04; in that of G2A G5A C13G C23U G36A G44U, 0.78; in that of G2A C10G G27C C42G G44C, 0.01.
G2A A4C C18U A24U: the self-cleavage is 0.05.
In the case of G1U G36U C46U it was 0.22; in that of G2A A6C C31A, 0.11; in that of G1U C10G G30A C42G, 0.01.
As for G1U C13U C23U A25U G27U, the figure is 0.04; as for G2A C13A A25U U28G, 0.14.
In the case of G1U G27A G33C it was 0; in that of G2A A16C G21A A24G, 0.06; in that of G2A C42G C46A, 0.06.
For G2A A26C U34C C46U, the self-cleavage is 0.33.
For G2A C13A U28G C31A C42A, the self-cleavage stood at 0.08.
In the case of G2A A14C U20C G27C G36A it was 0.26; in that of G1U G21U G35U U43G G44U, 0.02; in that of G2A A4C C10A C15U A16C, 0.05.
As for G1U G19C U28A U38G G40A, the figure is 0.01.
In the case of G2A A14G G22A G27C C31G C37G G40C it was 0.03.
Take G2A A6G C10A C37A: the self-cleavage stood at 0.01.
Consider G2A C15A U34G, for which the self-cleavage was determined as 0.14.
As to G1U G2A A16C G17U U32A, the self-cleavage was 0.01.
Consider G1U G27U C37A, for which the self-cleavage was found to be 0.03.
As for G1U C31U A39G, the self-cleavage was 0.04.
G1U G22U A25G U34C: the self-cleavage was determined as 0.01.
In the case of G1U C10G C15G G17U, the self-cleavage was determined as 0.01.
As for G1U G2C G27C C42G, the figure is 0.
In the case of G1U C13G G19U G36U G44U it was 0.04; in that of G1U G19C C23G U28C G30U U32A, 0.01; in that of G2A C13U G40U C46G, 0.35.
In the case of G2A C8U C10A A12C C13U it was 0.04.
Take G1U G2A C3G: the self-cleavage was 0.18.
In the case of G1U G27U G40A it was 0.11.
As for G2A A16C G33U, the figure is 0.04.
Regarding G1U G5U G7U G29A, the self-cleavage came out at 0.11.
As for G2A A14G G21U C31U, the figure is 0.1; as for G1U G17A G40A, 0.02.
Consider G1U G17A G40U, for which the self-cleavage was 0.02.
As for G2A A16U C23G, the figure is 0.24; as for G2A A12G U38A, 0.
As for G2A C18G G35C A39U C46A, the figure is 0.05; as for G1U G5A A12U C45G, 0.13.
As for G1U G5U C8G U9A G40U, the figure is 0.04.
On to G1U G17C G35C, for which the self-cleavage was found to be 0.04.
In the case of G1U C23U G29C A41C C46A it was 0.02; in that of G1U C10A A12C C42U, 0.01.
In the case of G1U G2U C23A it was 0.38.
As for G2A A4U G19A G30U, the figure is 1.36; as for G1U U38G G40A, 0.02; as for G1U U28A C31G U32A G36C, 0.03.
As for G2A C3A A16C, the self-cleavage was determined as 0.83.
As for G2A A24G C46U, the figure is 0.18; as for G2A C3U U9A C18U U28C U32A G40A, 0.06; as for G2A C13G G17U C23U C42A C45A, 0.02.
In the case of G1U U9G C10U C13G A41C it was 0.01; in that of G2A C15U C18U U38G, 0.08.
As for G1U G5U G7A G30U, the figure is 0.37; as for G2A C3A C10G C15G G19A G33C A39U, 0.06.
Consider G2A A14C G19C G29C C31G, for which the self-cleavage was found to be 0.09.
As for G2A C3G U9C G17U U20G G27U, the figure is 0.05; as for G1U U9C C18A G27U G44A, 0.01.
In the case of G1U G17C U38G it was 0.01; in that of G1U C13U G17U C23G G44A, 0.02.
In the case of G2A C37A U43G it was 0.16; in that of G2A C18A G22A G35U U43G C46U, 0.09; in that of G2A A4U U32C, 0.12.
With G1U G2U C3U G7U C10A C31A, the self-cleavage is 0.05.
In the case of G2A A12C G17C it was 0.14; in that of G1U G7A A26U U28A, 0.18.
As for G1U C10A C23U G29C, the figure is 0.02; as for G2A A6G G7C C31U, 0.02; as for G1U G2U G27C U38C C42A, 0.
As for G1U G17C G36U C46U, the figure is 0.03; as for G1U G7A U9G G22A G27U, 0.04.
G1U U9G A12G G21U G36U U38G: the self-cleavage came out at 0.01.
In the case of G2A A14G G35A it was 0.28; in that of G1U U34G C42A C45A, 0.04.
As for G2A C8G U34C, the figure is 0.06.
In the case of G1U G7A C13G G19U G21C it was 0.03.
In the case of G1U G2C C3A A14G A41C, the self-cleavage is 0.03.
In the case of G2A C10G C13U C37A C42A it was 0.02.
In the case of G2A C8U C13G it was 0.98; in that of G2A A4G G35C C45G, 0.38.
As for G2A A11C G29A G30C G36C A41C G44U C45A C46U, the figure is 0.01; as for G1U G17A A24U G35C, 0.04.
As to G2A G5A C15A C46A, the self-cleavage was determined as 0.84.
With G1U G27C U38G C42A, the self-cleavage was determined as 0.04.
Turning to G2A A26U G27U, the self-cleavage stood at 0.34.
In the case of G2A A4U A14C C23A A39U it was 1.19; in that of G2A A11G A14U C46G, 0.08; in that of G1U C18A G29U U34G C46U, 0.03.
As for G2A A14C G21U C42U, the figure is 0.1; as for G1U C18U C23A, 1.65.
Take G1U C13U G27U: the self-cleavage came to 0.06.
As for G2A C23A G44U, the figure is 1.54; as for G1U C15U G29A U34C, 0.06; as for G2A A11U A14U, 0.04.
As for G2A C18U G19A G22U A24G C45G, the self-cleavage came to 0.98.
G1U G29U G40U: the self-cleavage turned out to be 0.44.
On to G2A A12U G17C, for which the self-cleavage came out at 1.14.
As for G2A C3U C15G U28A, the figure is 0.04; as for G1U G2U C10A A16C A25C, 0; as for G2A C3G A24G A25C G30C A41G, 1.29.
As for G2A A14G C18U G40U, the self-cleavage was determined as 0.01.
In the case of G2A C3U A16U A25U U34C it was 0.36; in that of G2A A6C G19C A41U G44A, 0.02; in that of G2A A6U C8A A12G G35A C45G, 0.14.
In the case of G2A A6U G27A G35A it was 0.06; in that of G1U G17C C18U, 0.02.
As for G2A A14U G30A, the self-cleavage came to 0.04.
In the case of G1U C10A G35C it was 0; in that of G2A A6G A24U G35U, 0.6; in that of G2A A4U G7C G19A A26G C46U, 0.49.
In the case of G1U G7C G35U G40A it was 0.07; in that of G2A C3G G22U A25G C31U, 0.11.
As for G2A C8U G27U C31U U34C, the figure is 0.09.
